The record followed here is paper PMC9334288.

Amino acid sequences for entries named in this document (tags omitted).
UniProt Q13485: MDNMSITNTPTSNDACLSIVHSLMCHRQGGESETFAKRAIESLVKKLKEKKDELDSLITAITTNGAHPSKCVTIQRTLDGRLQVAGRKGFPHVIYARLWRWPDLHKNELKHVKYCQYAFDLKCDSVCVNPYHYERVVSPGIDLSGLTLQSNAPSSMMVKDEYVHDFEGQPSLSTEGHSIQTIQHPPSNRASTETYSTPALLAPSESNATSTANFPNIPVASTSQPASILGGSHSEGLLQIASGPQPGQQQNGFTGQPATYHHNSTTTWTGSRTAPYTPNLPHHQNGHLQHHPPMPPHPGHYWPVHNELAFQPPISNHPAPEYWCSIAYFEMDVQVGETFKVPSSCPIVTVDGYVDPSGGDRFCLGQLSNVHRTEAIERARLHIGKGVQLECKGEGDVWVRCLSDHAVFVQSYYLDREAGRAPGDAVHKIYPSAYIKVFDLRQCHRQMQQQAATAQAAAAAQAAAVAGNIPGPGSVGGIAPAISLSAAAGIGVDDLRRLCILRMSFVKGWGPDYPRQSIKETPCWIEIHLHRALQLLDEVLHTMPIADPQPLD
UniProt P84022: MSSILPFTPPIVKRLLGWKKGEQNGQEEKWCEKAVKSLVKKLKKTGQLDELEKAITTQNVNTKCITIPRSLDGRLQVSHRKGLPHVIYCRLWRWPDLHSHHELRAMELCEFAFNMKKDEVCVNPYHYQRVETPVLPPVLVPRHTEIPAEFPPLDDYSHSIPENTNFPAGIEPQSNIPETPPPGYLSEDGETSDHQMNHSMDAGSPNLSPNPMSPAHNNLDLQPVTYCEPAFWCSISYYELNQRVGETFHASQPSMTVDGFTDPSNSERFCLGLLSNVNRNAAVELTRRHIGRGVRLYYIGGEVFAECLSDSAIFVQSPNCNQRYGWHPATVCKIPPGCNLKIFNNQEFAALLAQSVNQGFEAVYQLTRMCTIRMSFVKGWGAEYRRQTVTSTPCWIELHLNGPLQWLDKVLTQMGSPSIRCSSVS
UniProt Q15796: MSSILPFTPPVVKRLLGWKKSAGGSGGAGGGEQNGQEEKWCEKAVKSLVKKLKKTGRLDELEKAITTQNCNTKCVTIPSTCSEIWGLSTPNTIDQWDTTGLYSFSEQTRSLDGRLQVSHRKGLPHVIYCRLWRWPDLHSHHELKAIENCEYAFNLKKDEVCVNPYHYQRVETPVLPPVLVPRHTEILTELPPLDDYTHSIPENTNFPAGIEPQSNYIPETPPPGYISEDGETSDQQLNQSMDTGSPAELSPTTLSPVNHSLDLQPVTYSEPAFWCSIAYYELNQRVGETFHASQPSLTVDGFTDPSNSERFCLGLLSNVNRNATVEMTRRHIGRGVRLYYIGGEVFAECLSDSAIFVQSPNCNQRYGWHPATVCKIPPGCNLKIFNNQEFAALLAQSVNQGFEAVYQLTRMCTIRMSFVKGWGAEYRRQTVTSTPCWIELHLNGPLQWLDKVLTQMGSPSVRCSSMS

Numbering of substitutions follows the chain as printed. These are yes or no findings as the source states them, for the method shown. Binding seen in cells or lysates may run through a third protein. Some entries that bind do so weakly or less than the wild type. Tags and fused reporters may be left off the sequences shown.

Test [1] has as its target T1, HA-tagged RGS6 (regulator of G-protein signaling 6), full length (human) (UniProt P49758).
T1 sequence: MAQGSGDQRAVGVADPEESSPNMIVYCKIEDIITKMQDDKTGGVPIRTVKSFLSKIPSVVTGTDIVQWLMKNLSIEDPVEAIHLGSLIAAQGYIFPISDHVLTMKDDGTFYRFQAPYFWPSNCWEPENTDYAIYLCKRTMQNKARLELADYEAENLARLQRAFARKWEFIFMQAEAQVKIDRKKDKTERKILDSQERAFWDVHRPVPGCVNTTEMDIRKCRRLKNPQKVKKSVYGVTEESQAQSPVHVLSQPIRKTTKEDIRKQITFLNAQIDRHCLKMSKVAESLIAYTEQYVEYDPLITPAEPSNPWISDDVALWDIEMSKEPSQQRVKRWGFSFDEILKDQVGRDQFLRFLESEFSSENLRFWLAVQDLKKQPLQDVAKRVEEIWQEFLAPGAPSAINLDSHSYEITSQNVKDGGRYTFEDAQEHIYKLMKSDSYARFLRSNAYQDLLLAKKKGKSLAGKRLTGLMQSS
Nature of the test: co-IP; A549 cells co-transfected with HA-tagged RGS6 and Flag-tagged SMAD3, with or without TGF-β (5 ng/ml) for 1 hour; immunoprecipitation with anti-HA antibody, blots for the indicated proteins.

Test [2] has as its target T2, HA-tagged RGS6(N401V), a GAP activity-deficient mutant (human) (UniProt P49758).
T2 sequence: T1 sequence with N401V
Nature of the test: co-IP; 293T cells co-transfected with Flag-tagged SMAD4 and various HA-tagged RGS6 mutants; IP of lysates with anti-HA antibody.

For test [3], the target named is T1, HA-tagged RGS6 (regulator of G-protein signaling 6), full length (human). The description is as above.

For “SMAD4 in A549 cells (from UniProt Q13485 1-552)”, the binding result in test [1] is on record as “binds”.
As for “Flag-tagged SMAD3 (from UniProt P84022 1-425)”, the binding entry in test [1] was “no binding”.
Same read-out and setting: the value for “SMAD2 in A549 cells (from UniProt Q15796 1-467)” was “no binding”.
For “Flag-tagged SMAD4 (from UniProt Q13485 1-552)”, the binding result in test [2] and in test [3] was “binds” throughout.
